The campaign covered roughly 390,000 compounds. About 150 (0.038%) were called active. Inconclusive results, whose numbers are uncertain, are shown with a selection of clear calls. Calls follow the shape of the dose curve; as a rule, active = well fitted inhibition curve with a large enough effect; inconclusive = small, poorly fitted or top-dose-only effect; inactive = no such curve, though single readings can be large or run the other way. Potencies beside an inconclusive call are fits to weak or partial responses and may not hold up.
biological target: Regulator of G-protein signaling 4 (Homo sapiens) (UniProt P49798); assay: Inhibitors of Regulator of G Protein Signaling (RGS) 4: qHTS; settings: Transcreener GDP fluorescence polarization, RGS4-accelerated GTP hydrolysis; series mostly up to 114 µM; also: nearly all actives have a fitted effect of over 75% in size
How it was run: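 MLSMR compounds (23 nl, pin-transferred) preincubated 10 min at room temperature with a 500nM (2x) first reagent, then RGS4 at 900nM (2x) plus Transcreener GDP mix added; fluorescence polarization (620/688 nm) read before and after 90 min at 30 °C.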
Potency is read from the fitted curve at half-maximal effect; tags tell the direction and shape of the fitted curve.

UniProt P49798, sequence (P49798 whole entry, looked up): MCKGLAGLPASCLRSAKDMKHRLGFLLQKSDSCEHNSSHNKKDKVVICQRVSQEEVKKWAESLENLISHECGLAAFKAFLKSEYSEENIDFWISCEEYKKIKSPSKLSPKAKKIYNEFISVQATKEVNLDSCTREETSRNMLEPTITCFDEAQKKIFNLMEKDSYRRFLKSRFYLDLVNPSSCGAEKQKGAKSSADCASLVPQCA

Compound	Potency
O=C(NC1=CC(=O)c2ccccc2C1=O)c1ccccc1	inconclusive: 17.8 µM [inhibitor, full curve, poor fit]
CC1CCN(S(=O)(=O)c2ccc(S(=O)(=O)N3CCCC3)cc2)CC1	inactive
CCOC(=O)CN1C(=O)S/C(=C/c2ccc(N3CCCCC3)o2)C1=O	inconclusive: 56.2 µM [inhibitor, partial curve, poor fit]
CCNC(=O)CC1C(=O)N(c2ccccc2)C(=O)N1Cc1ccc(F)cc1 (stereo not drawn)	inactive
COc1ccc(C(=O)NC2CCCc3ccccc32)c(OC)c1OC (stereo not drawn)	inconclusive: 100 µM [inhibitor, single point]
O=C(NNC(=O)c1cccnc1)Nc1ccc(Cl)c(Cl)c1	inactive
O=C(C=Cc1ccccc1)CC(c1ccccc1)N1CCOCC1 (stereo not drawn)	inconclusive: 56.2 µM [inhibitor, partial curve, poor fit]
CCOc1ccccc1NC(=O)COC(=O)CN(C)S(=O)(=O)c1ccc(C)cc1	inconclusive: 79.4 µM [inhibitor, single point]
O=S(=O)(c1ccc(-n2cnnn2)cc1)N1CCN(c2ccccc2F)CC1	inactive
CC(C)CC(C(=O)O)N1C(=O)C2C3CC(C2C1=O)C1C(c2ccccc2)c2sc(=O)[nH]c2SC31 (stereo not drawn)	inconclusive: 10 µM [inhibitor, full curve, poor fit]
C=CCOc1ccc(C(c2c(O)nc(SC)[nH]c2=O)c2c(O)nc(SC)[nH]c2=O)cc1	inconclusive: 50.1 µM [inhibitor, partial curve, poor fit]
COc1ccccc1CNC(=O)Cn1c(=O)oc2cc(S(=O)(=O)N3CCC(C)CC3)ccc21	inactive
CC(C)CC(=O)NC(NC(=S)Nc1sc2c(c1C#N)CCCC2)C(Cl)(Cl)Cl (stereo not drawn)	inconclusive: 50.1 µM [inhibitor, partial curve, poor fit]
CCOc1ccc(C(=O)CC(NCc2cccs2)C(=O)O)cc1 (stereo not drawn)	inconclusive: 44.7 µM [inhibitor, partial curve, poor fit]
CCN(CC)c1ccc(C=C(c2nnnn2-c2ccccc2)c2nnnn2-c2ccccc2)cc1	inactive
NC(=O)N/N=C/c1c(F)c(F)c(F)c(F)c1F	inconclusive: 17.8 µM [inhibitor, full curve, poor fit]
O=C(NNC(=O)c1ccccc1F)c1ccc2nc[nH]c2c1	inactive
CCOc1ncccc1C(=O)Nc1cc(S(=O)(=O)N2CCCCC2)ccc1Cl	inconclusive: 79.4 µM [inhibitor, single point]
Cc1ccc(C(=O)c2c3ccc(C(F)(F)F)cc3[n+]([O-])n2CCCN)cc1	inactive
COc1cc(C2c3cc4c(cc3OC(NNC(N)=S)C2C)OCO4)cc(OC)c1OC (stereo not drawn)	inconclusive: 70.8 µM [inhibitor, single point]
COc1cccc(OC)c1OCCNC(C)(C)C	inactive
O=C1C(=O)N(Cc2ccccc2)C(=O)N1CCOc1ccccc1	inconclusive: 100 µM [inhibitor, single point]
CCOC(=O)N1CCN(c2nc(-c3cccc(OC)c3)cc(C(F)(F)F)n2)CC1	inconclusive: 70.8 µM [inhibitor, single point]

Compound	Potency
CC1=CC(=O)Nc2ccccc2S1	inconclusive: 89.1 µM [inhibitor, single point]
CCOc1ccc(CN2CCNC(=O)C2CC(=O)N(C)Cc2nonc2C)cc1 (stereo not drawn)	inconclusive: 79.4 µM [inhibitor, partial curve, poor fit]
CC1=CC2=NC(=O)/C(=C\c3cccn3CCOc3cccc(C)c3)C(=N)N2O1	inconclusive: 100 µM [inhibitor, single point]
COc1ccc(C(C2C(=O)CC(C)(C)CC2=O)C2C(=O)CC(C)(C)CC2=O)cc1COCC(F)(F)F	inconclusive: 20 µM [inhibitor, full curve, poor fit]
Cc1cccc(NC(=O)C2CCCN(S(=O)(=O)c3c(C)[nH]c(=O)[nH]c3=O)C2)c1C (stereo not drawn)	inactive
CCN(CC)CCCNC(=O)c1cc(Cl)c(NC(=O)C2=C(C)OCCS2)cc1OC	inactive
Cc1ccc(N2C(=O)C(Cl)=C(N3CCCCCC3)C2=O)cc1	inactive
COc1ccc(-c2nc3ccccc3o2)cc1NC(=O)C(C)(C)Oc1ccc(Br)cc1	inactive
c1coc(-c2nnc3sc(Cc4cccs4)nn23)c1	inconclusive: 79.4 µM [inhibitor, partial curve, poor fit]
N#CC1=C(N)Oc2cc(O)ccc2C1c1ccc(Br)s1 (stereo not drawn)	inconclusive: 89.1 µM [inhibitor, partial curve, poor fit]
COc1ccccc1CN(Cc1nc2ccccc2c(=O)[nH]1)C(=O)Nc1ccccc1	inconclusive: 89.1 µM [inhibitor, single point]
CCN1CCN(C(=S)c2ccc(SC)cc2)CC1	inconclusive: 79.4 µM [inhibitor, partial curve, poor fit]
Cn1c(Cn2c(=O)sc3ccccc32)nnc1SCC(=O)NC1CCCC1	inconclusive: 56.2 µM [inhibitor, partial curve, poor fit]
CCS(=O)(=O)N1CCC(c2nc(-c3ccc(C)cc3)no2)CC1	inactive
O=C(COc1ccc([N+](=O)[O-])cc1)Nc1ccc2c(c1)nc1n2CCOC1	inactive
O=c1ccn([C@@H]2O[C@H](COP(=O)(O)OP(=O)(O)OP(=O)(O)O)[C@@H](O)[C@H]2O)c(=O)[nH]1	inconclusive: 1.68 µM [inhibitor, full curve, poor fit]
O=C(OCC(=O)N1CCN(C(=O)c2ccco2)CC1)c1cccc(S(=O)(=O)N2CCc3ccccc32)c1	inconclusive: 56.2 µM [inhibitor, partial curve, poor fit]
O=C(C1CCCN(Cc2cccc(Cl)c2)C1)N1CCCCC1 (stereo not drawn)	inconclusive: 39.8 µM [inhibitor, partial curve, poor fit]
CCOc1cc(C(Nc2cc(C)ccn2)c2ccc3cccnc3c2O)ccc1OC (stereo not drawn)	inconclusive: 25.1 µM [inhibitor, full curve, poor fit]
CCCn1c(SCC(=O)Nc2nnc(C)s2)nnc1-c1ccoc1C	inconclusive: 70.8 µM [inhibitor, partial curve, poor fit]
COc1ccc(NC(=O)Cn2nnc(C(=O)NCc3ccco3)c2N)c(OC)c1	inconclusive: 70.8 µM [inhibitor, partial curve, poor fit]
Cc1ccc(Sc2ncccc2[N+](=O)[O-])cc1	inactive
CN(CCOc1ccccc1)CCOc1ccccc1	inactive

Compound	Potency
COc1ccc2[nH]c3c(=O)n(CCN4CCOCC4)cnc3c2c1	inactive
CNC(=S)N/N=C/c1ccc2c(c1)OCCO2	inactive
CC(=O)NC1=NN(C(C)=O)C(c2ccccc2)S1 (stereo not drawn)	inconclusive: 35.5 µM [inhibitor, full curve, poor fit]
COc1ccc(C(=O)NCc2ccc3c(c2)cc(C)n3C)cc1	inconclusive: 50.1 µM [inhibitor, partial curve, poor fit]
CC1=NOC(=O)/C1=C\c1ccc(-c2ccc(Cl)c(C(=O)O)c2)o1	inconclusive: 44.7 µM [inhibitor, partial curve, poor fit]
CCN(CC)C(=O)c1sc2nc(-c3ccccc3)ccc2c1N	inconclusive: 50.1 µM [inhibitor, partial curve, poor fit]
Cc1[nH]c(=S)sc1Cc1ccc(F)cc1	inconclusive: 79.4 µM [inhibitor, partial curve, poor fit]
CCOC(=O)N1CCc2c(sc(NCc3cccs3)c2C(=O)Nc2cc(Cl)ccc2OC)C1	inconclusive: 89.1 µM [inhibitor, partial curve, poor fit]
Clc1ccccc1-c1nnc2sc(CCc3ccccc3)nn12	inconclusive: 17.8 µM [inhibitor, full curve, poor fit]
CCOC(=O)c1c(NC(=O)c2ccc(S(=O)(=O)N(CC(C)C)CC(C)C)cc2)sc2c1CCN(CC)C2	inactive
O=C(Cn1c(-c2ccccc2)noc1=O)N1CCC(Cc2ccccc2)CC1	inactive
CCN(CC1CCCN(CCc2cccc(F)c2)C1)C(=O)c1ccc(CSC)o1 (stereo not drawn)	inconclusive: 100 µM [inhibitor, single point]
CSc1nc(N)c2ncn([C@@H]3O[C@H](COP(=O)(O)OP(=O)(O)O)C(O)[C@H]3O)c2n1 (stereo partly drawn)	active: 0.532 µM
O=c1[nH]cc(N=Cc2cc(Cl)cc(Cl)c2O)c(=O)[nH]1	inconclusive: 100 µM [inhibitor, partial curve, poor fit]
CCN(CC)c1ccc(-c2nn3c(-c4cccnc4)nnc3s2)cc1	inconclusive: 89.1 µM [inhibitor, partial curve, poor fit]
CC(C)OC(=O)c1ccc(NCc2cc(O)ccc2O)cc1	inactive
CCN(CC)c1ccc(C(=C2C=CC(=[N+](CC)CC)C=C2)c2ccc(N(CC)CC)cc2)cc1	inconclusive: 31.6 µM [inhibitor, full curve, poor fit]
C[C@H](NC(=O)c1nc[nH]c1C(=O)N[C@@H](Cc1ccccc1)C(=O)OCc1ccccc1)c1ccccc1	inactive
COc1cc2c(cc1OC)C(c1ccccc1)N(C(=O)c1ccco1)CC2 (stereo not drawn)	inactive
Cc1ccc2[nH]cc(C(c3ccccc3)c3ccc(Cl)s3)c2c1 (stereo not drawn)	inactive
COc1ccc(C(C)=O)cc1COC(=O)c1c(C)nn(-c2ccccc2)c1C	inconclusive: 89.1 µM [inhibitor, single point]
COc1c2c(cc3c1C(CC(O)Cc1ccccc1)N(C)CC3)OCO2 (stereo not drawn)	inconclusive: 79.4 µM [inhibitor, partial curve, poor fit]
